PubChem BioAssay AID624296 (National Center for Advancing Translational Sciences (NCATS), 2012)
About 9,900 (2.8%) of roughly 350,000 compounds were called active. This list was built around the results that the source calls inconclusive (neither active nor inactive); the mix of calls is not that of the screen. Calls follow the shape of the dose curve; as a rule, active = well fitted activation curve with a large enough effect; inconclusive = small, poorly fitted or top-dose-only effect; inactive = no such curve, though single readings can be large or run the other way. Potencies of inconclusive entries are left out as doubtful fits.

Test: A quantitative high throughput screen for small molecules that induce DNA re-replication in MCF 10a normal breast cells. Also: nearly all actives have a fitted effect of over 50% in size. As to activity, positive = re-replication: % of control where 0% means no effect.
Details: MCF 10A DNA re-replication, Hoechst nuclear intensity, 48 h; activity, positive = re-replication: at 46.1 µM (top of the series)
Potency is read from the fitted curve at half-maximal effect; tags tell the direction and shape of the fitted curve.

Row | SMILES | activity, positive = re-replication | Potency
1 | COCCNC(=O)/C(C#N)=C/c1cc(C)n(-c2ccc(C)cc2)c1C | inactive: 5.66% | –
2 | c1cnc(SCCCOc2ccc3ccccc3c2)nc1 | – | inconclusive [activator, partial curve, poor fit]
3 | Cc1ccc(S(=O)(=O)c2c(N)n(NC(=O)c3ccccc3C)c3nc4ccccc4nc23)cc1 | – | inconclusive [activator, single point]
4 | CCc1ccc(OCC(=O)N2c3ccccc3CCc3ccccc32)cc1 | – | inconclusive [activator, single point]
5 | O=c1oc(CCCO)cc2ccc(C#Cc3ccsc3)cc12 | – | inconclusive [activator, single point]
6 | COc1ccc(CCN2C(=O)C(Oc3ccccc3C)C2c2ccc3c(c2)OCO3)cc1OC (centres undefined) | – | inconclusive [activator, single point]
7 | COc1ccc2cc(CN(CC3COCCO3)S(=O)(=O)c3ccccc3)c(=O)[nH]c2c1 (centres undefined) | inactive: -0.687% | –
8 | Cc1cc(C)nc(SCC(=O)N/N=C\C(Br)=C\c2ccccc2)n1 | – | inconclusive [activator, single point]
9 | COc1ccc(-c2cc(C(=O)Nc3ccc(O)cc3)c3ccccc3n2)cc1OC | inactive: 0.389% | –
10 | CC/C(=C/c1sc2ccc(C)cc2[n+]1CCO)SC | – | inconclusive [activator, single point]
11 | CC(=O)Nc1ccc2nc(C3CC3)n(Cc3ccc(Cl)cc3)c(=O)c2c1 | – | inconclusive [activator, full curve, poor fit]
12 | Cc1ccc2c(C)c(C(=O)N3CCN(c4ccncc4)CC3)oc2c1C | – | inconclusive [activator, single point]
13 | CCCn1c(SCC(=O)NC2CCCCC2)nnc1-c1ccncc1 | – | inconclusive [activator, single point]
14 | Cc1cc(NC(=O)c2cccc(S(=O)(=O)N3CCC(C)CC3)c2)no1 | inactive: 3.45% | –
15 | Fc1ccc(NC(=S)Nc2cc(-c3ccccc3)[nH]n2)cc1Cl | – | inconclusive [activator, single point]
16 | CC1CCN(C(=O)c2ccc3c(c2)NC(=O)/C(=C/c2ccccc2)S3)CC1 | – | inconclusive [activator, partial curve, poor fit]
17 | COc1ccc(S(=O)(=O)NCCOc2ccccc2)cc1-n1cnnn1 | inactive: -4.13% | –
18 | O=C(N/N=C/c1c(Cl)nc2ccccn2c1=O)c1cccnc1 | – | inconclusive [activator, single point]
19 | COc1cccc(OC)c1C(=O)Nc1nc2ccc(S(C)(=O)=O)cc2s1 | – | inconclusive [activator, full curve, poor fit]
20 | O=C(c1ccc(C(F)(F)F)cc1)N1CCC(=O)N(C(COCc2ccc(Cl)cc2)Cc2ccccc2)CC1 (centres undefined) | – | inconclusive [activator, single point]
21 | CCc1nc2ccccc2c(=O)n1NCCc1ccccc1 | – | inconclusive [activator, partial curve, poor fit]
22 | CC(=O)Nc1ccc(C(=O)CSc2cc(C)c3cccc(C)c3n2)cc1 | – | inconclusive [activator, partial curve, poor fit]
23 | CN(/N=C/c1c[nH]c2ccccc12)c1cnn(-c2ccc(F)c(Cl)c2)c(=O)c1Cl | – | inconclusive [activator, partial curve, poor fit]

Row | SMILES | activity, positive = re-replication | Potency
24 | COc1ccccc1[C@@H]1C(c2ccccc2)=NN(c2ccccc2)[C@H]1C(=O)N1CCOC1=O | – | inconclusive [activator, full curve, poor fit]
25 | CCC1=Nc2cc(C(=O)NCC3CCCO3)ccc2Sc2ccc(Br)cc21 (centres undefined) | – | inconclusive [activator, full curve]
26 | CC1=CC(C)(C)Nc2ccc(OC(=O)CCN3C(=O)c4ccccc4C3=O)cc21 | – | active: 6.51 µM
27 | Cc1c(Cl)cccc1NS(=O)(=O)c1c(C(=O)N2CCOCC2)c(C)n(C)c1C | inactive: 5.29% | –
28 | COc1ccc(NC(=O)CSc2nnc(C3CC3)n2C)cc1 | – | inconclusive [activator, single point]
29 | O=C(CSc1nnc(CN2CCOCC2)n1-c1ccccc1)N1CCc2ccccc21 | – | inconclusive [activator, full curve, poor fit]
30 | CC(C)Cn1c(O)c(/C=C2\C=NN=C2c2ccccc2)sc1=S | – | active: 23.1 µM
31 | Cc1ccc(C)c(-c2ccc(=O)n(Cc3cccc(Br)c3)n2)c1 | – | inconclusive [activator, single point]
32 | CN(c1ccccc1)S(=O)(=O)c1cccc(NC(=O)c2ccc(Cl)c([N+](=O)[O-])c2)c1 | – | inconclusive [activator, single point]
33 | C=CCNCCCCOc1ccccc1-c1ccccc1 | – | inconclusive [activator, partial curve, poor fit]
34 | O=C(CN(C1CCCCC1)S(=O)(=O)c1ccccc1)NCc1cccnc1 | inactive: 0.141% | –
35 | Cc1ccc(C)c(OCCCNC2CCCC2)c1C | – | inconclusive [activator, full curve, poor fit]
36 | COc1ccc(Cc2nnc(SCC(=O)Nc3ccc(C)cc3C)[nH]c2=O)cc1 | inactive: 5.95% | –
37 | CCn1nc(NC(=O)CC(C)C)c2cc3cccc(C)c3nc21 | – | active: 9.2 µM
38 | C/C(=N\NC(=O)c1cccc(S(=O)(=O)N2CCCC2)c1)c1ccc(C)cc1 | inactive: 2.3% | –
39 | CC(=NN(Cc1ccccc1)c1ccccc1)c1ccccc1 | inactive: 17.6% | –
40 | CC(=O)c1cc(O)c2ccccc2c1O | – | inconclusive [activator, single point]
41 | CCOc1ccc(C2C3=C(CC(C)(C)CC3=O)N(CC(=O)O)C3=C2C(=O)CC(C)(C)C3)cc1OCC | – | active: 0.82 µM
42 | Oc1cc2c(cc1CN1CCN(c3cccc(C(F)(F)F)c3)CC1)CCC2 | – | inconclusive [activator, partial curve, poor fit]
43 | COC(=O)c1cccc(NC(=O)/C=C/c2ccc3c(c2)OCO3)c1 | – | inconclusive [activator, full curve, poor fit]
44 | Cc1ccccc1OCC(=O)Nc1ccncc1 | inactive: 11.5% | –
45 | C=CCN(c1ccccc1)S(=O)(=O)c1cccc(C(=O)NCC2CCCO2)c1 (centres undefined) | inactive: 4.65% | –
46 | COc1ccc(CNCC(O)(c2ccccc2)c2ccccc2)cc1 | inactive: 0.116% | –

Row | SMILES | activity, positive = re-replication | Potency
47 | COc1cc(/C=C2/C(=O)ON=C2C)ccc1OCc1cccc(F)c1 | – | inconclusive [activator, partial curve, poor fit]
48 | CC(C)(CNC(=O)Cc1ccc(NS(=O)(=O)c2cccc(C(F)(F)F)c2)cc1)N1CCOCC1 | – | inconclusive [activator, partial curve, poor fit]
49 | CC(C)(C)NS(=O)(=O)c1ccc(CCC(=O)Nc2ccc3c(c2)OCCO3)cc1 | inactive: -7.7% | –
50 | CCOC(=O)C(Cc1nc(OCc2ccccc2)cc(OCc2ccccc2)n1)=NO | – | active: 20.6 µM
51 | O=C(NNC(=O)c1ncc(Cl)c(Cl)c1Cl)c1ccc(F)cc1 | – | inconclusive [activator, partial curve, poor fit]
52 | COc1ccccc1C(=O)NCCC(=O)N1CCN(c2ccc(C(F)(F)F)cn2)CC1 | inactive: -7.92% | –
53 | O=C(CC(C(=O)c1ccccc1)c1ccccc1)c1ccccc1 (centres undefined) | inactive: 8.22% | –
54 | Cc1ccc(S(=O)(=O)N(C)/N=C2/C(=O)N(CC(=O)O)c3ccccc32)cc1 | inactive: -1.48% | –
55 | O=C(Nc1ccc(F)cc1)c1sccc1SCc1cccc(C(F)(F)F)c1 | – | inconclusive [activator, single point]
56 | COCCN1C(=O)N(c2cccc(OC)c2)C(=O)C1CC(=O)Nc1cccc(F)c1 (centres undefined) | – | inconclusive [activator, single point]
57 | CCOC(=O)C(Cc1ccccc1)NC(=O)CCc1nnc2ccc(N3CCCC3)nn12 (centres undefined) | inactive: -0.642% | –
58 | Cc1sc(NC(=O)CSc2nnc(-c3ccc(F)cc3)o2)c(C#N)c1C | – | inconclusive [activator, single point]
59 | CN(CCc1ccccn1)Cc1ccc(Cl)c(Cl)c1 | inactive: -15.7% | –
60 | COc1ccc(CCNc2ccc(C(CC(N)=O)NC(=O)Cc3cccc4ccccc34)cc2[N+](=O)[O-])cc1 (centres undefined) | – | inconclusive [activator, single point]
61 | Nc1ccc(S(=O)(=O)NCc2ccccn2)cc1 | – | inconclusive [activator, single point]
62 | CCOC(=O)CSc1ccc(S(=O)(=O)N(C)C2CCCCC2)cc1[N+](=O)[O-] | – | inconclusive [activator, single point]
63 | COc1cc(/C=N/O)cc(Br)c1OCC(=O)NCc1ccccc1 | inactive: -38.8% | –
64 | COc1ccc(OCCCC(=O)Nc2cc([N+](=O)[O-])ccc2C)cc1 | – | inconclusive [activator, single point]
65 | CCOC(=O)N1CCN(C(=O)c2ccc(-n3c(C)ccc3C)cc2)CC1 | – | inconclusive [activator, single point]
66 | CC(CCc1ccccc1)N(C)CC(O)c1cccc([N+](=O)[O-])c1 (centres undefined) | – | inconclusive [activator, partial curve, poor fit]
67 | O=C(Nc1ccc(NC(=O)C2CC2)cc1)c1ccco1 | inactive: -37% | –
68 | CC1CC(C)CN(C(=O)c2cc3cc(Br)cc(Br)c3o2)C1 (centres undefined) | – | inconclusive [activator, single point]
69 | Cc1cccc[n+]1CC(=O)/C=C1\N(C)c2ccccc2C1(C)C | – | inconclusive [activator, full curve]
